One test deals with HSkMC. Put plainly: cytotoxicity call (relative viability < 0.9). To be noted: 10 µM.
A further test concerns HepG2. Put plainly: cytotoxicity call (relative viability < 0.9). To be noted: 10 µM.
For the next test, the system named is S. aureus RN4220. The test can be described thus: growth inhibition call (relative growth <= 0.2). To be noted: 50 µM.

The structures appear in SMILES notation. This is one part of the list.

We go through 27 compounds from the antibiotic and cytotoxicity screens of Wong et al. (2023).

Turning to `O=C1CCCN1CC#CCN1CCCC1`, the cytotoxicity call in the test on HSkMC and in the test with HepG2 was “inactive” each time. Further, in the test with S. aureus RN4220, the growth inhibition call is “inactive”.

`CCOC(=O)C1C(C=C(C)C)C1(C)C` (stereo unspecified): the cytotoxicity call in the test with HSkMC and in the test with HepG2 was “inactive” throughout. Also, in the test with S. aureus RN4220, the growth inhibition call is “inactive”.

As for `Cc1noc(C)c1CN1CCNCC1`, the cytotoxicity call with HSkMC and with HepG2 was “inactive” each time. Also, the growth inhibition call in the test with S. aureus RN4220 is “inactive”.

For `NCCc1ccc(C(=O)c2ccccc2)cc1`, the cytotoxicity call in the test on HSkMC and in the test with HepG2 was “inactive” each time. Moreover, the growth inhibition call with S. aureus RN4220 was “inactive”.

In the case of `CC(C)C[C@H](NC(=O)[C@H](CO)NC(=O)CNC(=O)[C@H](CC(C)C)NC(=O)[C@H](CCC(=O)O)NC(=O)[C@H](Cc1ccc(O)cc1)NC(=O)[C@H](CO)NC(=O)[C@H](CC(N)=O)NC(=O)[C@H](Cc1ccccc1)NC(=O)[C@H](CO)NC(=O)[C@@H](N)CSSC[C@H](N)C(=O)N[C@@H](Cc1ccc(O)cc1)C(=O)NCC(=O)N[C@@H](CCCNC(=N)N)C(=O)N[C@@H](CCCCN)C(=O)N[C@@H](CCCCN)C(=O)N[C@@H](CCCNC(=N)N)C(=O)N[C@@H](CCCNC(=N)N)C(=O)N[C@@H](CCC(N)=O)C(=O)N[C@@H](CCCNC(=N)N)C(=O)N[C@@H](CCCNC(=N)N)C(=O)N[C@@H](CCCNC(=N)N)C(=O)O)C(=O)O`, the cytotoxicity call in the test with HSkMC and in the test on HepG2 was “inactive” throughout. In the test with S. aureus RN4220, the growth inhibition call is “inactive”.

Take `CO[C@@H]1C[C@@H](C[C@H]2CC[C@H](C)[C@H]([C@@H](C)C(=O)O)O2)O[C@]2(O[C@](C)([C@H]3CC[C@@](C)([C@H]4O[C@@H]([C@H]5O[C@@](O)(CO)[C@H](C)C[C@@H]5C)C[C@@H]4C)O3)C[C@H]2C)[C@@H]1C`: the cytotoxicity call with HSkMC and in the test on HepG2 was “active” each time. Further, the growth inhibition call in the test with S. aureus RN4220 is “active”.

For the compound `CN(C)Cc1c[nH]c2ccccc12`, the cytotoxicity call in the test on HSkMC and with HepG2 was “inactive” each time. Further, the growth inhibition call with S. aureus RN4220 is “inactive”.

Turning to `c1ccc(N2CCNCC2)nc1`, the cytotoxicity call in the test with HSkMC and with HepG2 was “inactive” throughout. Further, in the test with S. aureus RN4220, the growth inhibition call was “inactive”.

Regarding `O=C1N[C@@H]2C(=C[C@H](O)[C@@H](O)[C@H]2O)c2cc3c(c(O)c21)OCO3`, the cytotoxicity call in the test with HSkMC and with HepG2 was “active” throughout. Further, in the test with S. aureus RN4220, the growth inhibition call is “inactive”.

Regarding `CC(=O)OCC1=C2C(=O)[O][Zn][O]C(=O)[C@@H](N)CCCC(=O)N[C@@H]3C(=O)N2[C@@H]3SC1`, the cytotoxicity call with HSkMC and with HepG2 was “inactive” in each case. Besides, the growth inhibition call with S. aureus RN4220 was “inactive”.

In the case of `CC1(C)[C@@H](C=C(Br)Br)[C@@H]1C(=O)O[C@@H](C#N)c1cccc(Oc2ccccc2)c1`, the cytotoxicity call with HSkMC and in the test on HepG2 was “inactive” each time. The growth inhibition call in the test with S. aureus RN4220 was “inactive”.

In the case of `C[C@H]1C(=O)O[C@@H]2CCN3CC=C(COC(=O)[C@](C)(O)[C@]1(C)O)[C@H]23`, the cytotoxicity call in the test on HSkMC and in the test on HepG2 was “inactive” each time. Further, the growth inhibition call with S. aureus RN4220 is “inactive”.

Regarding `COC(=O)[C@@]1(Cc2ccccc2N=[N+]=[N-])N=C(c2ccc(OCCCO)cc2)O[C@H]1c1ccccc1N=[N+]=[N-]`, the cytotoxicity call in the test with HSkMC was “active”. In addition, in the test with HepG2, the cytotoxicity call is “inactive”. Moreover, in the test with S. aureus RN4220, the growth inhibition call was “inactive”.

Regarding `COc1cc2c(c(OC)c1OC)-c1ccc(O)c(=O)cc1[C@H](N)CC2`, the cytotoxicity call in the test on HSkMC and with HepG2 was “inactive” throughout. In the test with S. aureus RN4220, the growth inhibition call was “inactive”.

`O=[N+]([O-])OC1COC2C(O)COC12` (stereo unspecified): the cytotoxicity call in the test on HSkMC and with HepG2 was “inactive” in each case. In addition, in the test on S. aureus RN4220, the growth inhibition call was “inactive”.

Consider `COc1ccc(OC(=O)N(C)C[C@@H]2OCc3ccccc3-c3c(n(C)c4ccccc34)C(=O)N([C@H](C)CO)C[C@H]2C)cc1`, for which, in the test with HSkMC, the cytotoxicity call was “active”. Moreover, in the test on HepG2, the cytotoxicity call was “inactive”. Further, the growth inhibition call in the test on S. aureus RN4220 was “inactive”.

`CN1CCCN(Cc2ccc(CN)cc2)CC1`: the cytotoxicity call in the test on HSkMC and in the test on HepG2 was “inactive” throughout. Further, in the test on S. aureus RN4220, the growth inhibition call was “inactive”.

`[N-]=[N+]=NCC(=O)Nc1ccon1`: the cytotoxicity call with HSkMC and in the test on HepG2 was “inactive” each time. In addition, the growth inhibition call in the test with S. aureus RN4220 is “inactive”.

For the compound `Cc1cccc(CC2(N)CC2)c1`, the cytotoxicity call in the test on HSkMC and in the test on HepG2 was “inactive” throughout. Besides, the growth inhibition call with S. aureus RN4220 is “inactive”.

On to `CC[C@@H](C)C(=O)O[C@H]1[C@H](O)[C@H]2[C@@H](CN3C[C@@H](C)CC[C@@H]3[C@@]2(C)O)[C@H]2C[C@]34O[C@]5(O)[C@@H](OC(=O)[C@@](C)(O)CC)CC[C@@]3(C)[C@@H]5[C@@H](OC(C)=O)[C@@H](OC(C)=O)[C@@H]4[C@@]21O`, for which the cytotoxicity call in the test with HSkMC and with HepG2 was “inactive” throughout. For the same compound, in the test on S. aureus RN4220, the growth inhibition call is “inactive”.

For `C=C1[C@H]2CC[C@H]3[C@]4(C)C[C@H](O[C@H]5O[C@@H](CO)[C@@H](OS(=O)(=O)O)[C@H](OS(=O)(=O)O)[C@H]5OC(=O)CC(C)C)C[C@@H](C(=O)O)[C@H]4CC[C@]3(C2)[C@H]1O`, the cytotoxicity call with HSkMC and with HepG2 was “inactive” in each case. In the test with S. aureus RN4220, the growth inhibition call was “inactive”.

`CC(C)(C)OC(=O)N[C@H]1[C@@H]2CNC[C@@H]21`: the cytotoxicity call in the test on HSkMC and with HepG2 was “inactive” in each case. In addition, the growth inhibition call in the test with S. aureus RN4220 was “inactive”.

`O=C(NN=Cc1ccc([N+](=O)[O-])o1)c1cc([N+](=O)[O-])cc([N+](=O)[O-])c1O`: the cytotoxicity call in the test on HSkMC and with HepG2 was “inactive” in each case. In the test on S. aureus RN4220, the growth inhibition call was “inactive”.

Turning to `COc1ccc([C@H]2CC(=O)N3CCNC[C@@H]23)cc1`, the cytotoxicity call in the test with HSkMC and in the test on HepG2 was “inactive” in each case. For the same compound, the growth inhibition call with S. aureus RN4220 is “inactive”.

Consider `C[C@@]12NC(=O)CN1CCc1ccccc12`, for which the cytotoxicity call with HSkMC and in the test on HepG2 was “inactive” each time. Moreover, the growth inhibition call with S. aureus RN4220 was “inactive”.

As to `CN1C[C@@H]2C[C@H](C(=O)Nc3cccnc3)[C@@H](C1)O2`, the cytotoxicity call in the test on HSkMC (human skeletal muscle cells) and in the test on HepG2 was “inactive” throughout. Moreover, the growth inhibition call in the test on S. aureus RN4220 is “inactive”.

On to `COC(C)(C)CCC[C@H](C)C/C=C/C(C)=C/C(=O)OC(C)C`, for which the cytotoxicity call in the test with HSkMC and in the test on HepG2 was “inactive” in each case. Also, the growth inhibition call in the test with S. aureus RN4220 is “inactive”.
